SMILES strings stand for the structures. The whole screen tested about 310,000 compounds, of which about 14,000 (4.5%) showed an effect of 50% or more. The effect is printed as a negative number. This is one part of the list.
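Further: peak tail current of the secondary pulse compared with the same well before compound.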

Chain of human ether-à-go-go-related gene (hERG) potassium channel (Q12809 whole entry, looked up): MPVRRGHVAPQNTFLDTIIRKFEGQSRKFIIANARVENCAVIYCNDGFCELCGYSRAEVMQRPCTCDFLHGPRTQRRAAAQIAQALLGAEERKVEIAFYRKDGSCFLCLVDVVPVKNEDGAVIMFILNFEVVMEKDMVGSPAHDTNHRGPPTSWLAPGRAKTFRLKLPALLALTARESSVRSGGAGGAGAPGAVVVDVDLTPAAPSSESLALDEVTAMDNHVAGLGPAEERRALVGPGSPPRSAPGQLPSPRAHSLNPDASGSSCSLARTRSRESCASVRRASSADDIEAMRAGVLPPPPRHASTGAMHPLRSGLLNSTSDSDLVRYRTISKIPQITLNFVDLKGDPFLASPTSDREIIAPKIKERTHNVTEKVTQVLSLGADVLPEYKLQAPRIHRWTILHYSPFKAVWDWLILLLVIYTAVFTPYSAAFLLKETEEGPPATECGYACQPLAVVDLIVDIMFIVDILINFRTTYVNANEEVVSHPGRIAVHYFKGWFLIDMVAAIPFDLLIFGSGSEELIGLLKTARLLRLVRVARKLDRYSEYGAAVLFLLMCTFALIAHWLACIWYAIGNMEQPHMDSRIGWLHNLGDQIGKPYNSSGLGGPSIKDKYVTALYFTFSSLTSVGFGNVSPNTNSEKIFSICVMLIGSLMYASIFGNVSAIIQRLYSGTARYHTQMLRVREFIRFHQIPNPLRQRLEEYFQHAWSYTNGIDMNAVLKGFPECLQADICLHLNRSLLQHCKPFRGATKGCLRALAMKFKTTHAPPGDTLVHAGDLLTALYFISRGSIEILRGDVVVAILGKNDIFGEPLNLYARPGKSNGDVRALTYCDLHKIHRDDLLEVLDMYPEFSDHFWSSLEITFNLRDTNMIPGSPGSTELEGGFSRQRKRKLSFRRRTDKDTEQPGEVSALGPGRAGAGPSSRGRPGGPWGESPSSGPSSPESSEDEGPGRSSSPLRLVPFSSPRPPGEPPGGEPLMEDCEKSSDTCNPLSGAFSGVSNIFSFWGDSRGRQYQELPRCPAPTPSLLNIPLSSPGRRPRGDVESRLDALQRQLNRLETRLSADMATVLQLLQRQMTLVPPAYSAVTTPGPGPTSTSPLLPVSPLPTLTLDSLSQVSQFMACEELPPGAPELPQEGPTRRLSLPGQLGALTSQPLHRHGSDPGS

This assay has as its target human ether-à-go-go-related gene (hERG) potassium channel (human, UniProt Q12809). Briefly: primary screen, population patch clamp on CHO cells stably expressing hERG.
In the case of `CCOc1ccc(C(=O)C(CN2CCOCC2)c2ccccc2)cc1.Cl` (stereo not drawn), the “hERG current change (%, negative = inhibition) at 10uM” value was -8.5%.

With `Cc1ccc(NC(=O)COC(=O)c2cccc3c2C(=O)c2ccccc2C3=O)c(C)c1`, the “hERG current change (%, negative = inhibition) at 10uM” value is reported as -38.6%.

Take `O=C(Nc1cccc2ncccc12)c1cc2ccccc2o1`: the “hERG current change (%, negative = inhibition) at 10uM” value is recorded as -12.8%.

Take `COc1ccc(N(C=O)C(=S)SC)cc1`: the “hERG current change (%, negative = inhibition) at 10uM” value is 8.27%.

With `CCc1nc(N2CCN(C(=O)c3ccco3)CC2)c2oc3ccccc3c2n1.Cl`, the “hERG current change (%, negative = inhibition) at 10uM” value is -64.8%.

In the case of `COc1ccc(CC(=O)NCc2n[nH]c(=S)n2-c2cccc(Cl)c2)cc1`, the “hERG current change (%, negative = inhibition) at 10uM” value is given as 7.32%.

Consider `O=c1c(S(=O)(=O)c2ccc(Cl)cc2)cn(Cc2ccccc2)c2ccc(F)cc12`, for which the “hERG current change (%, negative = inhibition) at 10uM” value is listed as 6.02%.

In the case of `CC(C)(O)CC[C@@H](O)[C@](C)(O)[C@H]1CC[C@@]2(O)C3=CC(=O)[C@@H]4C[C@@H](O)[C@@H](O)C[C@]4(C)C3CC[C@]12C` (stereo partly drawn), the “hERG current change (%, negative = inhibition) at 10uM” value was -5.1%.

Consider `Cn1c(C2=C(O)CN(Cc3ccccc3)C2=N)nc2ccccc21`, for which the “hERG current change (%, negative = inhibition) at 10uM” value was 4.82%.

For the molecule `Cc1ccc(C)c(S(=O)(=O)N2CCN(C(=O)c3ccc(C)s3)CC2)c1`, the “hERG current change (%, negative = inhibition) at 10uM” value is on record as -32.1%.

Turning to `O=C(Nc1ccc2c(c1)OCCO2)C(c1ccc(F)cc1)N1CCCCC1` (stereo not drawn), the “hERG current change (%, negative = inhibition) at 10uM” value was -0.538%.

For the molecule `COc1ccc(C(=O)OCC(=O)Nc2ccc(N3CCOCC3)cc2)cc1`, the “hERG current change (%, negative = inhibition) at 10uM” value was 7.25%.

Consider `Cc1nc2c(C(=O)N3CCCC3)cnn2c(C)c1Cc1c(F)cccc1Cl`, for which the “hERG current change (%, negative = inhibition) at 10uM” value is listed as -25.7%.

For `O=C(NCc1ccc2c(c1)OCO2)c1cc(-c2ccncc2)nc2ccccc12`, the “hERG current change (%, negative = inhibition) at 10uM” value is -67%.

In the case of `NC(=O)Cn1nc([N+](=O)[O-])nc1Oc1ccc(Br)cc1`, the “hERG current change (%, negative = inhibition) at 10uM” value worked out at 2.26%.

Turning to `Cn1cc(Cl)c(C(=O)N/N=C/c2ccc(OS(=O)(=O)c3ccccc3)cc2)n1`, the “hERG current change (%, negative = inhibition) at 10uM” value is -33.1%.

Regarding `Cc1cccc(CSc2nc3c(cc2C#N)CCC3)c1`, the “hERG current change (%, negative = inhibition) at 10uM” value is 13.7%.

For the molecule `CC(=O)Nc1ccccc1C(=O)C(=O)Nc1ccc(Cl)cc1`, the “hERG current change (%, negative = inhibition) at 10uM” value is listed as 8.48%.

Consider `CC(/C=C/c1ccccc1)=N/NC(=O)Cn1nnc(N)n1`, for which the “hERG current change (%, negative = inhibition) at 10uM” value is reported as 13.3%.

Take `O=C(OCc1ccc(COC(=O)c2cccnc2Cl)cc1)c1cccnc1Cl`: the “hERG current change (%, negative = inhibition) at 10uM” value is recorded as 28.7%.

Turning to `Cc1ccc(C(=O)N2CCCCCC2)cc1S(=O)(=O)N1CCOCC1`, the “hERG current change (%, negative = inhibition) at 10uM” value is reported as 0.405%.

In the case of `N#C/C(=N\Nc1ccccc1[N+](=O)[O-])C(=N)N1CCCCC1`, the “hERG current change (%, negative = inhibition) at 10uM” value was found to be 33.8%.

In the case of `O=C(NCC(O)c1ccc([N+](=O)[O-])cc1)Nc1ccccc1` (stereo not drawn), the “hERG current change (%, negative = inhibition) at 10uM” value is given as -3.09%.

Turning to `Cc1n[nH]c(=S)n1/N=C/c1ccccc1`, the “hERG current change (%, negative = inhibition) at 10uM” value is -1.99%.

`COc1cccc(NC(=O)C2C3CCC4C(CCC32)C4(Cl)Cl)c1` (stereo not drawn): the “hERG current change (%, negative = inhibition) at 10uM” value is 16.3%.

In the case of `O=C(NCc1ccco1)C1CC(c2ccccc2C(F)(F)F)=NO1` (stereo not drawn), the “hERG current change (%, negative = inhibition) at 10uM” value stood at 19.1%.

Regarding `Cc1ccc(NC(=O)CSc2nccc(=O)[nH]2)c(S(=O)(=O)N2CCOCC2)c1`, the “hERG current change (%, negative = inhibition) at 10uM” value is listed as 1.19%.

Consider `COc1ccc(CCNC(=O)CSc2nnc3ccc(-c4cccnc4)nn23)cc1OC`, for which the “hERG current change (%, negative = inhibition) at 10uM” value is 21.2%.

As to `Cc1ccccc1-n1c(C)nnc1SCC(=O)NCC1CCCO1` (stereo not drawn), the “hERG current change (%, negative = inhibition) at 10uM” value was -2.57%.

As for `CCCNC(=O)C(Cc1ccc(C(F)(F)F)cc1)NC(=O)c1ccc2ccccc2n1` (stereo not drawn), the “hERG current change (%, negative = inhibition) at 10uM” value is given as 14%.

Take `Cc1c(C(=O)Nc2c(F)cc(F)cc2Br)sc2ncn(CC(=O)N3CCCC3)c(=O)c12`: the “hERG current change (%, negative = inhibition) at 10uM” value came to 4.69%.

Regarding `CCC(CC)C(=O)NCCc1ccc(S(N)(=O)=O)cc1`, the “hERG current change (%, negative = inhibition) at 10uM” value came to 11.8%.

Consider `O=C(COC(=O)C1CCN(S(=O)(=O)c2cccs2)CC1)c1cc2ccccc2o1`, for which the “hERG current change (%, negative = inhibition) at 10uM” value is listed as 8.29%.

`O=C(CN1C(=O)CC(c2ccccc2)S(=O)(=O)c2ccccc21)N1CCCC1` (stereo not drawn): the “hERG current change (%, negative = inhibition) at 10uM” value was 16.8%.

As to `O=S(=O)(NC1CCCCC1)c1cccc2nsnc12`, the “hERG current change (%, negative = inhibition) at 10uM” value is 14.9%.

As to `Cc1cc(C)c(S(=O)(=O)N2CCCCC2)c(C)c1-n1ncnn1`, the “hERG current change (%, negative = inhibition) at 10uM” value is 4.01%.

As to `O=C(NCC(=O)N(Cc1cccs1)C(C(=O)NC1CCCC1)c1cccnc1)c1ccco1` (stereo not drawn), the “hERG current change (%, negative = inhibition) at 10uM” value worked out at 7.17%.

With `O=C(CN1CCCCC1)N/N=C/c1ccc(Cl)cc1`, the “hERG current change (%, negative = inhibition) at 10uM” value is -66.9%.

With `COC(=O)[C@@H](NC(=O)Nc1ccc(OC)cc1)C(C)C`, the “hERG current change (%, negative = inhibition) at 10uM” value was 16.5%.

Take `COc1ccc(Cl)cc1NC(=O)c1cc(C)no1`: the “hERG current change (%, negative = inhibition) at 10uM” value was found to be 11.1%.

With `CCCCc1c(C)c(C#N)c2[nH]c3ccccc3n2c1=O`, the “hERG current change (%, negative = inhibition) at 10uM” value was determined as 18.1%.

Turning to `CCc1ccc(C(O)(C(C)C)C(CN2CCOCC2)c2ccccc2)cc1.Cl` (stereo not drawn), the “hERG current change (%, negative = inhibition) at 10uM” value is 5.31%.

(Values after publication PMC4336329 (PLoS ONE, 2015).)
